Assay results published in the supplement of paper PMC11417369.
± gives the standard deviation of the averaged measurements. Some of the results follow.

System: PfAP2-EXP AP2 domain (GST-tagged)
Test: gcPBM binding intensity (ln(normalized median fluorescence intensity)); higher = stronger DNA binding
How it was run: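 GST-tagged P. falciparum DNA-binding domains produced in E. coli were incubated for 1 h on an Agilent 4 × 180k array of primer-extended double-stranded 36-bp intergenic genomic probes with negative controls. Binding intensity is the highest Masliner-normalised natural-log median intensity across replicate spots of either probe orientation, with bound protein detected by Alexa488 anti-GST antibody at 488 nm.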

Question: Which “gcPBM binding intensity (ln)” value does the source give for “TATTTATAAAAAAATACATGCATTTTTTTTTTTTTT [TGCATGCA_site65]” here?
Answer: Its value is 8.62 ± 0.21.

Question: For “TGTTAATTCTTAAGAATTTCCATAATTTCTTCTTTT [CACACA_negctrl_site1065]”, which “gcPBM binding intensity (ln)” value is on record?
Answer: Its value is 8.48 ± 0.43.

Question: For “TGGAATAATCCGCGTACACACATATATATATTAAGA [CACACA_site4253]”, which “gcPBM binding intensity (ln)” value is on record?
Answer: Its value is 8.87 ± 0.28.

Question: “TTATATTCTAGAGACACATGCGATTTTTTATTTTAT [TGCATGCA_site649]” was tested. Which “gcPBM binding intensity (ln)” value did it give?
Answer: Its value is 8.53 ± 0.33.

Question: “AATTAACCCTAATTTTGTACATATTCCTTTTCTCAT [XGTACX_site46]” was tested. Which “gcPBM binding intensity (ln)” value did it give?
Answer: Its value is 8.9 ± 0.55.

Question: For “AATAAAAATAGGAATACGCACACGATGATTAATTTA [CACACA_site1836]”, which “gcPBM binding intensity (ln)” value is on record?
Answer: The value was 8.53 ± 0.36.

Question: With “TATACCACACGATATACACACTTGTAGACATCTTTT [CACACA_site6232]” as the sequence, how does the “gcPBM binding intensity (ln)” value read?
Answer: Its value is 8.57 ± 0.52.

Question: For “GTTACTATGATTAATGCATGCAAATACCAAAAAAAA [TGCATGCA_site590]”, which “gcPBM binding intensity (ln)” value is on record?
Answer: Its value is 10.16 ± 0.064.

Question: “TAATACGAATGAGGCACACACCTAGTATACATGCTT [CACACA_site6438]” was tested. Which “gcPBM binding intensity (ln)” value did it give?
Answer: The value was 8.44 ± 0.43.

Question: Which “gcPBM binding intensity (ln)” value does the source give for “TCCCTTCATCTTTTATGTACTAAAAAATTGAATAAT [XGTACX_site2172]” here?
Answer: Its value is 8.7 ± 0.38.

Question: With “AATTAAAATTTTTGAAGTACACTCAAAATAAGTTAT [XGTACX_site4490]” as the sequence, how does the “gcPBM binding intensity (ln)” value read?
Answer: Its value is 8.51 ± 0.11.

Question: Which “gcPBM binding intensity (ln)” value does the source give for AATTAATGGCTAAAGGTGCACAATATATATATTACA here?
Answer: Its value is 9.65 ± 0.33.

Question: “AAAATAAAAAAAAACACACACATACAAGCATATATA [CACACA_site1585]” was tested. Which “gcPBM binding intensity (ln)” value did it give?
Answer: The value was 8.66 ± 0.46.

Question: With “AAAAAAAAATTTAAGGGTACATACAAATATATATAT [XGTACX_site5078]” as the sequence, how does the “gcPBM binding intensity (ln)” value read?
Answer: Its value is 9.34 ± 0.16.

Question: For “CCACATTAAAAAAAAACACACATATATTATATATAT [CACACA_site1155]”, which “gcPBM binding intensity (ln)” value is on record?
Answer: The value was 8.74 ± 0.042.

Question: For “GTTACAGAGAATGTTGTGCACATATCAATAATATAT [GTGCAC_site9671]”, which “gcPBM binding intensity (ln)” value is on record?
Answer: Its value is 8.89 ± 0.11.

Question: With “AAAATGACATAATGGGGAATAGACATATACATAAAT [CACACA_negctrl_site1669]” as the sequence, how does the “gcPBM binding intensity (ln)” value read?
Answer: The value was 8.95 ± 0.47.

Question: “AATACATGAATATGTAGTACAGAAAAAAAAAATATA [XGTACX_site1945]” was tested. Which “gcPBM binding intensity (ln)” value did it give?
Answer: Its value is 8.8 ± 0.35.

Question: For “TATATATATATATATATTTTAAATGATATAAATGGT [TGCATGCA_negctrl_site152]”, which “gcPBM binding intensity (ln)” value is on record?
Answer: Its value is 10.2 ± 0.42.

Question: For “AATTAATTAAATTAATGTACACATATATTTGTATTC [XGTACX_site2341]”, which “gcPBM binding intensity (ln)” value is on record?
Answer: The value was 8.53 ± 0.27.

Question: How did the “gcPBM binding intensity (ln)” value turn out when “AAATGGTAAGAAAATAAATAAAGTTCTACCACATAA [CACACA_negctrl_site1542]” was run?
Answer: Its value is 8.54 ± 0.51.

Question: With “ATTTTTCTTTTATTAACACACATATAAATAAATACA [CACACA_site2876]” as the sequence, how does the “gcPBM binding intensity (ln)” value read?
Answer: The value was 8.6 ± 0.47.

Question: Which “gcPBM binding intensity (ln)” value does the source give for “ATATATATATATATATATATATATGTTTGATTTTTT [XGTACX_negctrl_site98]” here?
Answer: Its value is 10.1 ± 0.45.

Question: How did the “gcPBM binding intensity (ln)” value turn out when “TAGAAAGAATATAATTGTACAAATGTTGATAGATAA [XGTACX_site7259]” was run?
Answer: The value was 8.65 ± 0.16.
